Measured values taken from the supplement of paper PMC11417369.
The other results are listed elsewhere or left out.

What follows are sequences tested on PF3D7_0420300 AP2 domain 1 (GST-tagged) (assay: gcPBM binding intensity (ln(normalized median fluorescence intensity)); higher = stronger DNA binding).
Summary of the method: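 An Agilent 4 × 180k array of primer-extended double-stranded 36-bp intergenic genomic probes, with negative controls, was incubated for 1 h with GST-tagged P. falciparum DNA-binding domains expressed in E. coli. Alexa488 anti-GST antibody detected bound protein, scanned at 488 nm. Binding intensity is the highest Masliner-normalised natural-log median intensity across replicate spots of either probe orientation.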

Sequence	gcPBM binding intensity (ln)
TATAATAATATTTATTGTACAATTAGGTTAATTCAT [XGTACX_site1986]	9.13
AATCTAATGTAATGCATACACACAACTATCCATCAA [CACACA_site535]	9.53
TAAAATGAAGGAATATGTACATAAATAAACATATAT [XGTACX_site6266]	9.48
AATATACGAAATTGTGCACACATATATTTATGTATG [CACACA_site1510]	9.58
CATATATGATATATTAGTACATATATATATATATAT [XGTACX_site1574]	9.1
CGATATAAAGATATTAGTACATATGCATGCTTGTCT [XGTACX_site8629]	9.32
AAAACATACAGATATACACACATATATATATATATA [CACACA_site5091]	9.53
ATATAGATCTACACTGCACACATTTTTAACACTGCT [CACACA_site1882]	9.66
ATATTTAAACGATGGTGTACATATATTACAAGTTGT [XGTACX_site1743]	9.48
ACGCATGTAATTTATACACACATTCTTTTATATTTT [CACACA_site3708]	9.59
TATACATATATATATACACACATATATATATATACA [CACACA_site402]	9.4
AAATTATTATCGTTAATATGTATATATGTGCCAAGT [TGCATGCA_negctrl_site557]	9.34
GCATTTTAATAATTATGTACATATATTATTCCTGGT [XGTACX_site3664]	9.37
TTCCATCAAAAAATGGGTACACATTATAGAAATATT [XGTACX_site8482]	9.15
AAGAAAAACATTACGTGTACCAAAAGGCCTGTCAAC [XGTACX_site267]	9.64
GTAACAAATAAAATAACACACATGTCGAAATGTATG [CACACA_site2971]	9.7
ATAATTATATAAATATATATAATATATATATGAAAA [XGTACX_negctrl_site357]	9.05
AAAATGGGTTAGCACATACACACCAATATATTATAT [CACACA_site3082]	9.59
CAATTAAATATATGAACACACATGTGAACTTTCTAT [CACACA_site3977]	9.41
AAATACCTGATATATACACACTATGTTTTTCTTTTT [CACACA_site6680]	9.62
TATTAAATTATATAGACACACATTATATATATATAT [CACACA_site4345]	9.35
AAAAAGAAATATTTATGTACATAATAATAATATTTT [XGTACX_site4693]	9.07

Sequence	gcPBM binding intensity (ln)
AATATAGATACATATACACACACACCCATACATATA [CACACA_site9137]	10.1
GTAAGATTTCTTGTTGCATGCGGTAAAAAGTAAAAT [TGCATGCA_site469]	9.21
TAGATAAATGGGTATACACACATATACATAAATATA [CACACA_site375]	9.56
TACACCCACCAACACACACACACACCCAAAAAAAAA [CACACA_site498]	10.1
AACTTTATACTTTTTTGTACTTAACCCTTACATTTT [XGTACX_site5798]	9.63
TTTATGAAACAGTGCACACATAAAAATATATACATA [CACACA_site2992]	9.44
TTTATATATTTATTCACACATATAATATTCCGTCGT [CACACA_site6120]	9.29
TATAGATGTATGTACATACACACATATATAAATAAA [CACACA_site1789]	9.38
TGTTAATTTATATTATGTACTTATAATTATCGTTTG [XGTACX_site1032]	9.38
ATAATTCTAAATAAATGTACACACAAAAATAAATGT [XGTACX_site3547]	9.76
GTTAATTGAAGATTCACACATAAATATATATATAAT [CACACA_site5482]	9.18
TAACGCATGAATATAATATATATATATATAAAAATA [GTGCAC_negctrl_site218]	9.01
ATTGTATGCACGTCTGCACACTTTTTTTTTTTTTTT [CACACA_site2082]	9.36
TTCTATAAGTATAAATGTACAAAAAAAACATCATTC [XGTACX_site5450]	9.34
CATATTCCAAGAATGTGTACATAATTTTTTTTTTTT [XGTACX_site4310]	9.07
CTCATAATTTCTGAACGTACGTATTTCTCATTTTTA [XGTACX_site7296]	9.37
ATTTTTTTTTAATGCAAAAGGTGATGATCGGTCATA [CACACA_negctrl_site959]	8.89
TAATTATAAATTATAGTGCATAAAATTGTAGCATAA	9.15
AAAATATGATATGAAAAATTTGTTATATATACATAA [CACACA_negctrl_site1529]	9.12
GACATTTGTGAGCTTGAGCCGTCAAACCACTAAATA [CACACA_negctrl_site552]	9.03
TGTATTAATATGGTAATACACACTAATATACTTTTG [CACACA_site1610]	9.38
AACATAATAAAAATGGATATAATTCAAAGTTTGTAA [TGCATGCA_negctrl_site529]	9.25

Sequence	gcPBM binding intensity (ln)
TGTTATTCGACATATACACACAAATAACAATTTAAA [CACACA_site5076]	9.35
AAAAAATTGAAGGAGTGTACATTTATACTTTATTTT [XGTACX_site8623]	9.19
TGTAGAATTTCCTGAACATGCAAATAATTTTCCTTA [TGCATGCA_site881]	8.98
AGGTCTGTTTTATATTGTACATAAAAAGTGCACATG [XGTACX_site4529]	9.53
TTTTTTACATCCATAAAACTTTTTCTCTTTTAAAAT [CACACA_negctrl_site1745]	8.94
AGAGAGAAAGGTATAACATGCGATAAATTTTAGAAG [TGCATGCA_site37]	9.35
ATATAGTTCGTTTATACACACATGATAAGATATTTA [CACACA_site1947]	9.57
AAATCACTTTTTAAGTGTACTTGGTCTTTCTCATTT [XGTACX_site7221]	9.28
TTTTCTTGATTTTGTAGTACATTTTTACGATATTTT [XGTACX_site63]	9.47
ATGTAAATTATTATTCTATTGTTATATACACAATAT [XGTACX_negctrl_site332]	9.32
CACATACATATATACACACACAAAATAATAAAATAA [CACACA_site2308]	10
AAAATTATATTTTATAGAAATTTAAATAAATATATA [GTGCAC_negctrl_site199]	8.77
TTTTTAAAAATAACAGAAAAGAATTACAGATTTTTT [XGTACX_negctrl_site472]	8.99
TACAAATATAGATGCACACACATATAGGTATATGTG [CACACA_site7439]	9.64
TATATATAATTATAAGAACACACATATATATATATA [CACACA_site8786]	9.45
AATGATACTTAGGGGCATGTCTCTGGGGGCATAACC [CACACA_negctrl_site591]	9.45
ATATATTTCTGTCAAGCACACATAATATTAATATAT [CACACA_site7993]	9.35
CATATTATATTTTCATGTACACATAACATATTTATA [XGTACX_site4787]	9.37
GTTATAAACAAAATAAATATATGAATATATAATAAT [XGTACX_negctrl_site96]	9.28
ATATAGTAAATGTTCACACATACAAATATATATATA [CACACA_site5518]	9.33
AAGTTTTCTTAAAGCTGTACTTTTTAAAAATAAAAT [XGTACX_site7716]	8.73
TTAAAAATATTATGTACACACATTTTAGATATTTGT [CACACA_site1846]	9.45

Sequence	gcPBM binding intensity (ln)
TAAATATATATATATTGTACAAAACAAATGTGAATT [XGTACX_site696]	9.45
TCCTAATATTTGTCAAATTTCAAAATAAATAAAATG [XGTACX_negctrl_site540]	8.84
TAATTAAAATCATATACACACCCATATATATATATA [CACACA_site8524]	9.45
TAAAAGGGGATATATGAACACACAAAAAAAAAATAT [CACACA_site8940]	9.66
TATATATATATGTACACACACACATATAAATAAATA [CACACA_site443]	9.9
CATATTTTTTCTTAAACACACACATATATATATATA [CACACA_site8920]	9.61
TTAAAAAAAAAAAAAAGTACATAAGTATATATAATA [XGTACX_site4295]	9.17
ATATTAAGTTTTATTACACACTCTCAATTTTTATTT [CACACA_site4206]	9.67
TAAATGTTTCTCAAAAGTACACATGTGATATTTCTT [XGTACX_site2065]	9.2
TAATTTCTTATGTATTGTACAAATAATATATTATTT [XGTACX_site3066]	9.28
ATTCAAAATAATCACAGTACACATGAGATTATCTTT [XGTACX_site2197]	9.17
TTAATATGGAAATGTTGTACATTTCTTGAAGCATTC [XGTACX_site525]	9.03
ACTTCATAAACATTTTGTACGTATGTATCTTTTTAT [XGTACX_site7012]	9.49
TTATTGAAAAACATAATATCTAAGAGGGTAATATAT [GTGCAC_negctrl_site599]	9.33
TGGAAACAAAAACACACACACAAAAAAAAAAAAAAA [CACACA_site3209]	9.68
TGTATTATTAATATTTGTACGTAATAATAAAAACAT [XGTACX_site3716]	9.26
TCCTTAGAAATATTGATCATAAACTGGAAAGGTATA [XGTACX_negctrl_site354]	9.06
GAAATATATAAATTGACACACACATATATACATATA [CACACA_site8323]	9.85
TTTAACATAAATTAAACACACAATAAAATACATTAA [CACACA_site6699]	9.54
CATAAATACAGATATACACACATATATATATATATA [CACACA_site4528]	9.45
GAGGTACATTAATTAGTGCATTAAAATTTTTATCCT	9.17
ATAATACATATAGAAGGTACACTATTATTTTCCTGA [XGTACX_site903]	9.42
